PMC4336329 (PLoS ONE, 2015)
Hit rate of the full screen: of about 310,000 compounds, about 14,000 (4.5%) showed an effect of 50% or more. Effects have a minus sign here. The list shows a part of the results.

Each compound was assayed against human ether-à-go-go-related gene (hERG) potassium channel (human, UniProt Q12809) (assay: primary screen, population patch clamp on CHO cells stably expressing hERG).
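Also: peak tail current of the secondary pulse compared with the same well before compound.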

human ether-à-go-go-related gene (hERG) potassium channel, sequence (Q12809 whole entry, looked up): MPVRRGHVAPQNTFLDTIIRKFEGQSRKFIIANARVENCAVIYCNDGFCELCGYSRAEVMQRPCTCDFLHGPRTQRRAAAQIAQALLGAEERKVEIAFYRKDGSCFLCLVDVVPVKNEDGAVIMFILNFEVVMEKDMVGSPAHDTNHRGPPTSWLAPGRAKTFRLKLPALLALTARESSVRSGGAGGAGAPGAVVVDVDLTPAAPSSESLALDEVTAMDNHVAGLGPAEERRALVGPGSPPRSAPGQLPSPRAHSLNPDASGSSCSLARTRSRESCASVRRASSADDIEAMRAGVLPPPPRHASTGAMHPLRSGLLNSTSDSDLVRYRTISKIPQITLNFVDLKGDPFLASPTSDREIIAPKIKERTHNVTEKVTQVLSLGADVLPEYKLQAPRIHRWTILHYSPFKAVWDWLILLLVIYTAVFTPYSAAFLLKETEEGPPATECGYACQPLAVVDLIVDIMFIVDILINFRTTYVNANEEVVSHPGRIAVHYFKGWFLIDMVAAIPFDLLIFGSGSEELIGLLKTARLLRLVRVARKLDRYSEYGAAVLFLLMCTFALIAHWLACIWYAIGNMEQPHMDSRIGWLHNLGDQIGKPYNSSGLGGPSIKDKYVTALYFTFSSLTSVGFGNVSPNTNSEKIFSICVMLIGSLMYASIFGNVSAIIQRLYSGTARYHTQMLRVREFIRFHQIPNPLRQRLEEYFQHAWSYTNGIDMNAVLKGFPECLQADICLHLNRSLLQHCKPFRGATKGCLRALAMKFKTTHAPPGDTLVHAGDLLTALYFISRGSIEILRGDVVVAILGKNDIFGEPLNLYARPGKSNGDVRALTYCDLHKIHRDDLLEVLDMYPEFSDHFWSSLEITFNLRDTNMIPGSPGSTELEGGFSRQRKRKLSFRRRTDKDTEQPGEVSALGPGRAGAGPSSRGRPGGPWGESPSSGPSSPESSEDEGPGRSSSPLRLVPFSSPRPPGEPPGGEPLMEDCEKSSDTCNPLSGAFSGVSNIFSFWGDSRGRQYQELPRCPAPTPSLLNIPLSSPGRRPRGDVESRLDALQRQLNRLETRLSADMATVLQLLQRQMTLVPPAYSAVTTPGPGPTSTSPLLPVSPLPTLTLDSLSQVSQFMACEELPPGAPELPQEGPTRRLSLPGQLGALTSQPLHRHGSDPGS

Row | SMILES | hERG current change (%, negative = inhibition) at 10uM
1 | COc1ccc(C)cc1N1C(=N)/C(=C2/Nc3ccccc3S2)C(c2ccccc2)C1=O (centres unmarked) | 5.63%
2 | COc1ccc2c(c1)C1NC(=S)N[C@@](C)(O2)C1C(=O)Nc1ccccc1 (some centres unmarked) | -3.49%
3 | COc1cccc(-c2cc(C(F)(F)F)n3ncc(C(=O)O)c3n2)c1 | -1.46%
4 | CCOC(=O)Cn1c(C)cc(COC)c(C#N)c1=O | 18.6%
5 | CCc1csc(CCNC(=O)C2CCC(=O)N(Cc3cccc(C(F)(F)F)c3)C2)n1 (centres unmarked) | 4.29%
6 | Cc1ccc(S(=O)(=O)N2CCN(C(=O)Cc3ccccc3)CC2)cc1C | -2.97%
7 | CCc1ccc(OCC(=O)N(Cc2cccs2)C2CCS(=O)(=O)C2)cc1 (centres unmarked) | -47.8%
8 | O=C(NCCCCc1ccccc1)Nc1ccc(F)cc1 | 18.1%
9 | CCOc1cc(C2C(C(=O)N3CCOCC3)=C(C)NC3=C2C(=O)CCC3)ccc1O (centres unmarked) | 2.55%
10 | CCCC(C)NC(=O)c1ccc(-c2ccccc2)cc1 (centres unmarked) | 15.4%
11 | O=C(CNC(=O)c1ccc(S(=O)(=O)N2CCCC2)cc1)N/N=C/c1ccccc1Cl | -8.14%
12 | CC(C)CCn1c(N)c(C(=O)NCc2cccs2)c2nc3ccccc3nc21 | -3.01%
13 | O=C(NN1C(=O)C2C3C=CC(C3)C2C1=O)c1ccncc1 (centres unmarked) | 2.17%
14 | COC(=O)c1nn(-c2cccc(Cl)c2)ccc1=O | 6.98%
15 | CN1OC(Cn2cc(C#N)c(=O)n(C)c2=O)CC1c1ccccc1 (centres unmarked) | 12.5%
16 | C1=C2C[N+]3(CCCC3)CC2Cc2ccc3ccccc3c21.[Br-] (centres unmarked) | 5.2%
17 | CC(SCc1ccccc1)C(=O)NC1CCCC1 (centres unmarked) | 3.27%
18 | O=C1CN(C(=O)COC(=O)CCS(=O)(=O)c2ccccc2)c2ccccc2N1 | 19.1%
19 | O=C(O)Cn1c(SCc2cccc3ccccc23)nc2ccccc21 | 6.65%
20 | O=C(Nc1ccccc1C(=O)NC(Cc1ccccc1)C(=O)O)c1ccccc1 (centres unmarked) | 23.9%
21 | OC1CCN(Cc2cccc(Oc3ccccc3)c2)CC1 | 6.4%
22 | Clc1ccc2nc(CSc3nc4ccccc4o3)cn2c1 | -12.1%

Row | SMILES | hERG current change (%, negative = inhibition) at 10uM
23 | Cc1nn2c(-c3ccncc3)ccnc2c1Cl | 4.94%
24 | Cc1ccc2c(CSc3nc4ccccc4c(=O)n3CCCO)cc(=O)oc2c1C | 1.98%
25 | COc1ccc(CCNc2oc(COc3ccccc3Cl)nc2C#N)cc1OC | -8.13%
26 | CCC1Oc2ccc(C)cc2N(CC(=O)NCc2cccc(OC)c2)C1=O (centres unmarked) | -8.94%
27 | COc1cc(C(=O)NCc2ccco2)cc(OC)c1OC | 15.1%
28 | O=C1CCCCC1C(Nc1ccc(Br)cc1)c1ccccc1 (centres unmarked) | 4.34%
29 | CCCCNC(=O)c1cc2c(-c3ccc(Cl)cc3)nn(C)c2s1 | -7.09%
30 | Cn1c(SCC(=O)NC(C)(C)C)nc(O)cc1=O | 5.81%
31 | CC[N+](C)(C)c1cccc(O)c1.[Cl-] | 8.67%
32 | Cc1ccc2c(c1)N(CCCC(=O)NCc1ccc3c(c1)OCO3)C(=O)CO2 | -17.3%
33 | CCCNC(=O)COc1ccccc1[N+](=O)[O-] | -13.3%
34 | Cn1ccc(O)c(C#N)c1=O | 7.16%
35 | CCn1c(Cc2ccccc2)nnc1SCC(=O)c1cccc([N+](=O)[O-])c1 | -24%
36 | CCC(NC(=S)Nc1ccccc1)C(=O)O (centres unmarked) | 5.38%
37 | CCOc1ccccc1N1CCN(CC(=O)NC(C)c2ccccc2)CC1 (centres unmarked) | 5.56%
38 | Cc1[nH]c2ccccc2c1/C=N/NC(=O)c1cc(-c2cccs2)[nH]n1 | 4.01%
39 | COc1ccc(NS(=O)(=O)c2cc(NC(=O)C3CCCCC3)ccc2N2CCOCC2)cc1 | -0.943%
40 | CCN1C(=O)[C@H]2[C@@H](c3ccc(C)cc3)N3C(=O)N(c4ccc(C)cc4)C(=O)[C@@]3(Cc3ccc(Cl)cc3)[C@H]2C1=O | 10.9%
41 | OC(COc1ccc2ccccc2c1Cl)CN1CCOCC1 (centres unmarked) | -24.5%
42 | CCOC(=O)C1=C(Nc2ccccc2)CC(C)(O)C(C(=O)OCC)C1c1ccccc1 (centres unmarked) | 15%
43 | N/C(=N\OC(=O)COc1ccc2ccccc2c1)c1ccncc1 | 16.6%
44 | CCc1nnc(NC(=O)CSCc2cc(=O)n3ccsc3n2)s1 | 18.8%
